# Article PMC4336329 (PLoS ONE, 2015)
# The campaign covered roughly 310,000 compounds. About 2,200 (0.71%) showed an effect of 50% or more. The effect is printed as a negative number. Some of the results follow.
# Target: human ether-à-go-go-related gene (hERG) potassium channel (human, UniProt Q12809)
# Test: primary screen, population patch clamp on CHO cells stably expressing hERG
# Chain of human ether-à-go-go-related gene (hERG) potassium channel (Q12809 whole entry, looked up): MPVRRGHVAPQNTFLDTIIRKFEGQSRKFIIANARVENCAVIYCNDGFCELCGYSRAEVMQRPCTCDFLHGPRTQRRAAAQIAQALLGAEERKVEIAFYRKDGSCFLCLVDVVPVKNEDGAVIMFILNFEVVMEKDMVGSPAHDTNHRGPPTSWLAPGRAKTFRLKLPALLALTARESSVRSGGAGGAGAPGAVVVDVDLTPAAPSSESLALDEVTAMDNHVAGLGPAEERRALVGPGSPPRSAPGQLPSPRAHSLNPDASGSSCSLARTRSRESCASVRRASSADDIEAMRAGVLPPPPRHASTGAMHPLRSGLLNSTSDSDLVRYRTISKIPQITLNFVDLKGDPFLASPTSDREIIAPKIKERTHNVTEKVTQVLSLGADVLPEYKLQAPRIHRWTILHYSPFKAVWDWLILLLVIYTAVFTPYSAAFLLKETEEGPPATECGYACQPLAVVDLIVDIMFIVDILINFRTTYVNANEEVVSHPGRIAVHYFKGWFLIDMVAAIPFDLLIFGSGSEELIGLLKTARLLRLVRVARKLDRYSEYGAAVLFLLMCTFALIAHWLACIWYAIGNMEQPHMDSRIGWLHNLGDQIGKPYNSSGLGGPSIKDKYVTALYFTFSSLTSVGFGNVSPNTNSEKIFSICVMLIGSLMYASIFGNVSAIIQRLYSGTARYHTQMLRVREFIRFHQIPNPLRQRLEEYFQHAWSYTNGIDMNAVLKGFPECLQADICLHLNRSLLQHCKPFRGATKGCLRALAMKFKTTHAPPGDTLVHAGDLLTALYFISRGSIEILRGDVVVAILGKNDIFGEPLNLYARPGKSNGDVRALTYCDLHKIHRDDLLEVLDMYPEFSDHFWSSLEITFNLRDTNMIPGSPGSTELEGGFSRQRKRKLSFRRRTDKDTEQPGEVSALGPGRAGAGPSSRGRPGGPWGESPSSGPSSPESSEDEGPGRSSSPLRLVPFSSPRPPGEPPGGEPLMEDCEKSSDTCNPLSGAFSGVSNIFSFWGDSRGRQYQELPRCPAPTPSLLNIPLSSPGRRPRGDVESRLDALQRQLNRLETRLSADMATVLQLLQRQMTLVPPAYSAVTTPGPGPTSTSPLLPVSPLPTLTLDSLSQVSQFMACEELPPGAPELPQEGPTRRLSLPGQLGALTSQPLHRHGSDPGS
row,SMILES,"hERG current change (%, negative = inhibition) at 1uM"
1,CCOC(=O)C1(Cc2ccccc2)CCN(Cc2cnn(CC)c2)CC1,1.92%
2,C=CCNC(=O)COC(=O)CCC(=O)c1cccs1,5.9%
3,CCN1C2=C(C(=O)CCC2)C(c2ccc(O)cc2)C2=C1CCCC2=O,10.1%
4,CCn1c(SCC(=O)Nc2ccc(N3CCOCC3)cc2)nnc1-c1ccco1,3.03%
5,CCOC(=O)c1c(C)[nH]c(C)c1S(=O)(=O)N(C)CC(=O)NCc1cccc(Br)c1,-2.62%
6,C[C@@H]1CCCCCCCCC(=O)OCCN1C(=O)OC(C)(C)C,5.96%
7,Cc1ccc(N(Cc2ccc(C(=O)NCCSc3ccccn3)cc2)S(C)(=O)=O)cc1C,8.27%
8,Cc1ccc(NS(=O)(=O)c2ccc3[nH]c(=O)[nH]c3c2)cc1,14.5%
9,CC(C)c1ccccc1NC(=O)COc1ccc2c(=O)c(Oc3ccc4ccccc4c3)coc2c1,12.5%
10,COC(=O)c1ccc(CNC(=O)COc2ccccc2Br)o1,12.4%
11,C/C(=N\NC(=O)COc1ccc(C)cc1[N+](=O)[O-])c1cccs1,13%
12,COc1ccc(C(C)=O)cc1CC(=O)NC1CCCCCC1,6.38%
13,Cc1ccc(CCNS(=O)(=O)c2cc3c(cc2C)n(C)c(=O)c(=O)n3C)cc1,-3.22%
14,O=[N+]([O-])c1ccc(Nc2ccccc2)cc1,8.55%
15,CCOCCCNC(=O)c1cn(CC(C)C)c(=O)c2c1c1ccccc1n2C,14.7%
16,Cc1ccc(C(=O)N2CCN(S(=O)(=O)c3ccc(C)c([N+](=O)[O-])c3)C2)cc1,-9.1%
17,CS/C(=C\[N+](=O)[O-])Nc1ccc(Cl)cc1,-0.306%
18,C=CCc1cc(Cl)ccc1OC(=O)Nc1cccc(Cl)c1,5.9%
19,COc1cc(/C=C2\C(=O)ON=C2c2ccccc2)cc(Cl)c1O,-1.92%
20,CCC(=O)Nc1c2c(nn1-c1ccc([N+](=O)[O-])cc1)CS(=O)(=O)C2,14.3%
21,NC(=O)C1CCN(Cc2nc3ccccc3c(=O)[nH]2)CC1,12.6%
22,O=C(c1ccc(Br)cc1)N1CCCc2ccccc21,7.16%

row,SMILES,"hERG current change (%, negative = inhibition) at 1uM"
1,COc1ccc(/C=N/NC(=O)CCCC(=O)NC2CCCCC2)cc1,16.9%
2,Cc1nc(-c2cccc(NS(=O)(=O)c3ccccc3)c2)cs1,2.72%
3,Cc1[nH]nc2c1C(c1ccc(-c3ccccc3C#N)o1)C(C#N)=C(N)O2 (stereo not drawn),7.6%
4,CC1=C(C)CC(C(=O)NCCc2ccc(F)cc2)C(C(=O)O)C1 (stereo not drawn),11.5%
5,CN1C(=O)CC(n2c(CO)nc3ccccc32)C1=O (stereo not drawn),8.7%
6,COc1cc(/C=C2\C(=N)N3N=CSC3=NC2=O)cc(Br)c1OC(=O)c1ccco1,2.37%
7,CCOC(=O)c1ccc(CC(=O)c2ccc(O)cc2O)o1,5.66%
8,Cc1ccc2cc(CCNC(=O)c3ccco3)c(=O)[nH]c2c1,7.95%
9,O=S(=O)(NCc1ccc(F)cc1)c1ccc(-c2cnc(C3CC3)o2)cc1,13.7%
10,CC(Oc1ccc(Cl)cc1)C(=O)N1CCN(C(=O)c2ccco2)CC1 (stereo not drawn),5.48%
11,COc1ccc(N(CC(=O)NC2CCCCC2)C(=O)CNC(=O)c2cccs2)cc1OC,11.8%
12,COc1ccc(C(O)(C(=O)NNc2ccc(C)cc2)c2cccs2)cc1 (stereo not drawn),7.81%
13,CCn1c(CNC(=O)c2cccc(C)c2)nnc1SCC(=O)Nc1nnc(C)s1,12.3%
14,CCOc1ccccc1Oc1coc2cc(OC)ccc2c1=O,13.4%
15,CCCN1CCN(S(=O)(=O)c2cn(C)nc2C)CC1,18.8%
16,COc1ccc(/C=C(\NC(=O)c2cccs2)C(=O)Nc2cccc3ccccc23)cc1OC,3.26%
17,CN(CC(=O)Nc1cccc(F)c1)C(=O)Cn1c(=O)cnc2ccccc21,10.7%
18,COC(=O)c1c(C)n(-c2ccccc2)c2ccc(O)cc12,-2.76%
19,COc1ccccc1C(=O)N/C(=C\c1cn(S(=O)(=O)N(C)C)c2ccccc12)C(=O)N1CCOCC1,16.6%
20,Cc1onc(-c2c(F)cccc2Cl)c1C(=O)OCC(=O)NCc1ccccc1,5.72%
21,N/C(Cc1ccc([N+](=O)[O-])cc1)=N\OC(=O)COc1ccc2ccccc2c1,9.59%
22,OC(CNc1ncnc2sccc12)c1ccccc1 (stereo not drawn),8.3%

row,SMILES,"hERG current change (%, negative = inhibition) at 1uM"
1,CN(c1ccc(Cl)cc1)S(=O)(=O)c1nnc(NC(=O)c2ccco2)s1,13.4%
2,CCCCC1CCC(C(=O)NCC(c2ccco2)N2CCOCC2)CC1 (stereo not drawn),12.8%
3,O=c1cc(N2CCOCC2)[nH]c(=O)n1Cc1ccc(F)cc1,19.6%
4,CCC(CC)COC(=O)C1=C(C)NC(=O)NC1c1cccc([N+](=O)[O-])c1 (stereo not drawn),13.5%
5,CCOC(=O)C1=C(C)Nc2ncnn2C1c1cc(OC)ccc1OC (stereo not drawn),10.3%
6,C=CCn1c(SCn2nnc3ccccc3c2=O)nc2scc(-c3cccs3)c2c1=O,5.88%
7,O=C(NCc1ccccc1Cl)c1cc(C(=O)C2CC2)c[nH]1,14.5%
8,O=C(Nc1ccc(C(=O)NC2CCCCC2)cc1)c1cncc(Br)c1,0.0087%
9,CCc1c(C)nc(SC(C(=O)O)c2ccccc2)c(C#N)c1C (stereo not drawn),5.6%
10,CC1CCc2c(sc3nc(SCC(=O)NCc4ccco4)nc(N)c23)C1 (stereo not drawn),2.95%
11,CC(=O)N1c2ccc(S(=O)(=O)NCCC(=O)NCCc3cccc(C)c3)cc2CC1C (stereo not drawn),20.9%
12,CCc1sc(N(C(=O)Cc2ccccc2)c2ccccc2)nc1-c1ccccc1,10.8%
13,O=C(OCCCc1cc2ccccc2c(=O)o1)c1ccc(C(F)(F)F)cc1,7.12%
14,COc1ccc(C(=O)C2CCCN(C(=O)/C=C/c3ccccn3)C2)c(C)c1 (stereo not drawn),5.84%
15,COc1ccc(Br)cc1CN(C)CC(=O)NCCc1ccc(S(N)(=O)=O)cc1,6.73%
16,CC1CC(C)CN(C(=O)c2cccc3c2-c2ccccc2C3=O)C1 (stereo not drawn),8.39%
17,C=C(C)Cn1c(=O)c(NC(=O)c2ccccc2)c2n(c1=S)CCC2,3.55%
18,CCCC(=O)c1ccc(N2CCCCCC2)c(F)c1,-0.404%
19,CCN(C(=O)COc1cc(=O)n(CC)c2ccccc12)c1cccc(Cl)c1,-6.04%
20,Cc1nc(SCC(=O)c2cccc([N+](=O)[O-])c2)n[nH]1,12.9%
21,O=C(O)c1cccc(Nc2c3ccccc3nc3ccccc23)c1,15.9%
22,Cc1ccc(Cl)cc1NC(=O)CC1NCCNC1=O (stereo not drawn),3.11%

row,SMILES,"hERG current change (%, negative = inhibition) at 1uM"
1,COc1cc(C(CCN2CCOCC2)c2c(OC)cc(OC)c3c2OC(=O)CC3c2ccc(N(C)C)cc2)cc(OC)c1OC (stereo not drawn),6.92%
2,CCC(=O)N1CCN(c2ccc(NC(=O)COc3cccc(C)c3C)cc2)CC1,-2.72%
3,CCN(C(=O)COC(=O)COc1ccc2c(C)cc(=O)oc2c1)C1CCS(=O)(=O)C1 (stereo not drawn),4.83%
4,Cc1cc(C)c2c(c1)-c1c(ssc1=S)C(C)(C)N2C(=O)CN1C(=O)c2ccccc2C1=O,-2.88%
5,O=C(Nc1cccc(C(=O)N2CCOCC2)c1)c1ccccc1Cl,-4.58%
6,N#Cc1c(NCCCO)nc(NCc2ccccc2)c2c1CCN(Cc1ccccc1)C2,-11.8%
7,COc1ccc(-c2cn3cccnc3n2)cc1Br,9.34%
8,CC1CC(C)CN(S(=O)(=O)c2cc(C(=O)O)c(Cl)s2)C1 (stereo not drawn),-6.21%
9,CCn1cc(C(=O)N[C@H](C(=O)NCCCOC)C(C)C)c(=O)c2cc3c(cc21)OCO3,9.14%
10,CCOc1ccc(NCc2nnc(SCC(=O)Nc3nc(-c4ccccc4)cs3)n2-c2ccccc2)cc1,4.76%
11,COc1ccc(C2NC(=O)NC3=C2C(=O)CCC3)cc1 (stereo not drawn),13.5%
12,CC(C)c1ccc(OCC(=O)Nc2ccc3oc(=O)ccc3c2)cc1,14.9%
13,O=C(CSc1ccc([N+](=O)[O-])cn1)Nc1ccc2c(c1)OCCO2,11.1%
14,CN(C(=O)COC(=O)c1cc(S(=O)(=O)N2CCCCC2)ccc1Cl)c1ccccc1,0.742%
15,O=C(NCCCn1ccnc1)c1cc2c(s1)CCCC2,7.42%
16,CCOC(=O)c1ccc(NC(=S)N2CCCC(C(=O)N3CCCC3)C2)cc1 (stereo not drawn),10.8%
17,CCOc1ccc(OCC(=O)Nc2ccc(S(=O)(=O)Nc3cc(C)nc(C)n3)cc2)cc1,18.3%
18,Cc1cc(C)c2nc(NC(=O)C3CSC4(C)CCC(=O)N34)sc2c1 (stereo not drawn),20.8%
19,CC(C)(C)c1ccc(-c2n[nH]c(=S)n2CCCN2CCOCC2)cc1,21.2%
20,COc1ccc2[nH]c(=O)c(CN(Cc3cccnc3)S(=O)(=O)c3ccccc3F)cc2c1,7.89%
21,c1ccc(-n2c(-c3ccncc3)nnc2N2CCOCC2)cc1,11.6%
